Molecules are shown by their SMILES. Values joined by “and” are separate entries in the source; they are usually repeats but may differ in a detail not shown here. Equal values may be shown once. The whole screen tested about 16,000 compounds, of which about 40 (0.2%) were called active. Another 1% or so got no clear call; they are omitted. Calls come from the whole dose curve; as a rule, active = well fitted activation curve with a large enough effect; inconclusive = small, poorly fitted or top-dose-only effect, or another doubt; inactive = no such curve, though single readings can be large or run the other way. The list shows a part of the results.

We go through 54 molecules from PubChem BioAssay AID1645887 (National Center for Advancing Translational Sciences (NCATS), 2021).
% is set by controls: 0 for no effect and ±100 for the full control effect.

The target in the experiment is Rap guanine nucleotide exchange factor 4 (Homo sapiens) (UniProt Q8WZA2). Briefly: Validation qHTS for agonist of cAMP-regulated guanine nucleotide exchange factor 4 (EPAC2).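 Note: exchange makes BODIPY-GDP fluorescence drop when released from Rap1B; series mostly up to about 150 µM.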 The note with it: EPAC2 Rap1B BODIPY-GDP exchange, fluorescence; activation: active compounds read high. Put shortly: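 Signal normalized against 6.5 mM cAMP as agonist control. Mix of EPAC2 (100 nM), RAP1B-BODIPY-GDP (250 nM) and GDP (50 uM) was read kinetically at 480/540 nm, every 5 min over 30 min, after 5 min room-temperature incubation with compound.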
Chain of UniProt Q8WZA2 (Q8WZA2 whole entry, looked up): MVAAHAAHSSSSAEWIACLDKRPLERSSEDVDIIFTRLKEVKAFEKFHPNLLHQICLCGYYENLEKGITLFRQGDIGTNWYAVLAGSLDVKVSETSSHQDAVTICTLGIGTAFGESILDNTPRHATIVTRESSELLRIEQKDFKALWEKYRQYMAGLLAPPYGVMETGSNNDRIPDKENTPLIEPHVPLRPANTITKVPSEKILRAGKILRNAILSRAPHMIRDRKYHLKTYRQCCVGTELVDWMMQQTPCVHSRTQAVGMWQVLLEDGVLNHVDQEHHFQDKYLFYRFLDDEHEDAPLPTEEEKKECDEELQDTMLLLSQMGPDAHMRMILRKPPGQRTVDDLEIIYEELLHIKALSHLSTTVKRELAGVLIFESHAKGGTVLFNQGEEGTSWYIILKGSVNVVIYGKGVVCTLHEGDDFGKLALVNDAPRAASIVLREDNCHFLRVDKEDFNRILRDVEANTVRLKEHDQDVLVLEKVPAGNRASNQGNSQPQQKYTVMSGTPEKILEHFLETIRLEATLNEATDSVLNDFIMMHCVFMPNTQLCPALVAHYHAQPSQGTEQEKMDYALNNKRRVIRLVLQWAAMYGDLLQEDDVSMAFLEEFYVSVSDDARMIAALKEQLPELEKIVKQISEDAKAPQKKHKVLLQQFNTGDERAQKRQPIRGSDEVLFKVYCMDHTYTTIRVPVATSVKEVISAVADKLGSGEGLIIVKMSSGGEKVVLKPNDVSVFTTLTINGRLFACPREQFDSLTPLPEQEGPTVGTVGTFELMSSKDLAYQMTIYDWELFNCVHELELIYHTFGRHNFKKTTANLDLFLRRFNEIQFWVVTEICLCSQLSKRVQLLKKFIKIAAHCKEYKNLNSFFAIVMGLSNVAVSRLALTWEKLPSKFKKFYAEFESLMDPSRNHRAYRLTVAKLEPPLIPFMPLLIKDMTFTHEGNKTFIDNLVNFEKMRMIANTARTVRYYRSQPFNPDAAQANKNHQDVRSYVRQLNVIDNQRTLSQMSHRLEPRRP
In general terms: qHTS replaces the single test concentration by a dilution series.
With `CC(=O)OC1CCC2(C)C(=CCC3C2CCC2(C)C3C[C@@H]3O[C@]32C(C)=O)C1` (some centres undefined), the activation was inactive: -8.42%.

Consider `Cc1cccc(Nc2cc(Cl)nc(SCC(=O)O)n2)c1C`, for which the activation was inactive: -7.24% [middle of 4 runs].

Consider `CC(C)(C)NC(=O)[C@H]1CN(Cc2cccnc2)CCN1C[C@@H](O)C[C@@H](Cc1ccccc1)C(=O)N[C@H]1c2ccccc2C[C@H]1O`, for which the activation was inactive: -31.4%. For `C=C1CCC(O)C/C1=C\C=C1/CCCC2(C)C1CCC2C(C)/C=C/C(C)C(C)C` (centres undefined), the activation is inactive: -60%. With `CC(C)CN1CCCC2(CCN(C(=O)c3cc(C(F)(F)F)cc(C(F)(F)F)c3)CC2)C1` the figure was inactive: -33.7%; with `COc1ccccc1-c1cc(-n2ccnc2)ncn1`, inactive: -0.886%; with `O=C1[C@H](Cc2ccccc2)NC/C=C\C[C@@H](c2ccc(Cl)cc2)N1Cc1ccccc1`, inactive: -43%. Then `COc1ccc(CC(N)C(=O)NC2C(O)[C@H](n3cnc4c(N(C)C)ncnc43)O[C@@H]2CO)cc1` (some centres undefined), with inactive: 5.11%; and `O=C(N/N=C/c1ccc([N+](=O)[O-])o1)c1ccc(O)cc1`, with inactive: -7.97%; and `CN1CCN(C(c2ccccc2)c2ccc(Cl)cc2)CC1` (centres undefined), with inactive: -1.75%. Then `CCc1oc2ccccc2c1C(=O)c1cc(I)c(O)c(I)c1`, with inactive: -8.37%; and `COc1ccc(-c2nc3cnc(OC)nc3n(-c3ccccc3)c2=O)cc1`, with inactive: -0.906%; and `CC(C)=CCC/C(C)=C/CC/C(C)=C/CCC(=O)OC/C=C(\C)CCC=C(C)C`, with inactive: -17%. As to `Cc1ccc(C(C)C)cc2c(C)ccc1-2`, the activation is inactive: -0.138% and inactive: -5.79%. Take `COCCn1c(=O)c(-c2cc(F)cc(F)c2)nc2cnc(Oc3cccc(Cl)c3)nc21`: the activation is inactive: -4.03%. Then `NC(=O)c1ncn([C@@H]2O[C@H](CO)[C@@H](O)[C@H]2O)c1O`, with inactive: 3.91% and inactive: -8.43%. On to `CN(C)C(=O)c1ccc(-c2nccc(N(C)Cc3ccco3)n2)cc1`, for which the activation is inactive: -10.8%. `CC(C)C(NC(=O)c1ccoc1)c1nnc2n1CCN(C(=O)/C=C/c1ccc(F)cc1)CC2` (centres undefined): the activation is inactive: -19.1%. In the case of `CCc1nc2cc(C(=O)N3CCCN(C=O)CC3)cc(NC(=O)c3ccccc3OC)c2n1C`, the activation was inactive: -4.58%. With `C[C@H](CCC(=O)O)[C@H]1CC[C@@H]2[C@H]3CC[C@H]4C[C@H](O)CC[C@]4(C)[C@@H]3CC[C@@]21C` the figure was inactive: -9.27%; with `Cc1noc(C)c1C(=O)N1CCC2(CC1)CN(C(=O)Nc1cccc(F)c1)C2`, inactive: -11.2%; with `COc1cccc(Nc2ncc3nc(-c4ccccc4)c(=O)n(Cc4cccs4)c3n2)c1`, inactive: -10.4%. With `CC(C)(C)NCC(O)CSc1nc(-c2ccc(C(N)=O)s2)cs1` (centres undefined) the figure was inactive: -4.03%; with `CC[C@H](C)C(=O)O[C@H]1CCC=C2C=C[C@H](C)[C@H](CC[C@@H]3C[C@H](O)CC(=O)O3)[C@H]21`, inactive: -37.3%; with `Cn1cnc2c(ncn2[C@@H]2O[C@H](CO)[C@@H](O)[C@H]2O)c1=N`, inactive: -4.72%.

For the molecule `Cc1cccc(CNc2ccnc(-c3cccnc3)n2)c1`, the activation was inactive: -12.5%. With `CCC(=O)N[C@@H]1CCc2cccc(OC)c2C1` the figure was inactive: -20.2%; with `C/C(=C\CO)CCC(C)CCCC(C)CCCC(C)C` (centres undefined), inactive: -44%. In the case of `O=C(c1ccco1)N1CCC[C@@]2(CCN(c3cccc(-c4ccccc4)c3)C2)C1`, the activation was inactive: 4.69%. Then `OCC1=CC[N+]2(Cc3ccccc3)CCC(O)[C@@H]12` (some centres undefined), with inactive: -16.7%. Then `COc1cccc(Nc2ncc3nc(-c4ccccc4)c(=O)n(C)c3n2)c1`, with inactive: -7.86%. With `O=C(c1ccco1)N1CCC2(CC1)CCN(c1ccccn1)CC2` the figure was inactive: -16.1%; with `COC(=O)[C@@H]1CCCN1S(=O)(=O)Cc1ccccc1`, inactive: -14.2%; with `CCCCCCCC(=O)CC[C@@H]1[C@@H](C/C=C\CCCC(=O)OC(C)C)[C@@H](O)C[C@H]1O`, inactive: -51.3%.

Turning to `CCCCO`, the activation is inactive: -25.4%. Then `CCN1CCCC1CNC(=O)c1cnn(-c2nccc(-c3ccccc3F)n2)c1C` (centres undefined), with inactive: -3.68%; and `C=C1C2CC[C@@]3(C)C(c4ccoc4)OC(=O)C[C@@]13OC1CC(=O)C(C)(C)C(C(O)C(=O)OC)[C@]12C` (some centres undefined), with inactive: -9.5%; and `FC(F)(F)c1cc(CO[C@H]2CCCN[C@H]2c2ccccc2)cc(C(F)(F)F)c1`, with inactive: -19.3%. Then `O=c1c(-c2ccc(F)c(F)c2)nc2cncnc2n1Cc1ccccc1Cl`, with inactive: 18%; and `Cc1ccc(S(=O)(=O)NCl)cc1`, with inactive: 2.21%.

Take `Nc1ccc(C=O)cc1`: the activation is inactive: -18.1%. `COc1ccc(Oc2ncc3nc(-c4cn(C)c5ccccc45)c(=O)n(C)c3n2)cc1`: the activation is inactive: -2.47%.

Regarding `O=C(N/N=C/c1ccccc1O)c1ccncc1`, the activation was inactive: -26.3%.

For `C[C@@H]1CN(c2c(F)c(N)c3c(=O)c(C(=O)O)cn(C4CC4)c3c2F)C[C@H](C)N1`, the activation was inactive: -1.02%.

With `O=c1n(CC2CO2)c(=O)n(CC2CO2)c(=O)n1CC1CO1` (centres undefined), the activation is inactive: -11.3%. With `C[C@@H]1O[C@@H]1P(=O)(O)O` the figure was inactive: 9.76%; with `Cn1c(=O)c2[nH]c(-c3ccc(S(=O)(=O)O)cc3)nc2n(C)c1=O`, inactive: -5.37% and inactive: -27%. Take `Cn1cccc1C(=O)N1CCC2(CCCN(c3ncccn3)C2)CC1`: the activation was inactive: -7.68%.

For `COc1cc(-c2c(-c3ccc4c(c3)OCO4)noc2C)ccc1F`, the activation was inactive: -1.82%.

`COc1ccc(-n2c(=O)c(-c3ccccc3)nc3cnc(N4CCN(C)CC4)nc32)cc1`: the activation was inactive: -4.54%. As to `COc1cc(-c2cnc3ccccc3c2)cc2c1OCCN(C(=O)CCC(=O)c1ccc(F)cc1)C2`, the activation is inactive: -1%. For `COc1cccc(-c2nccc(NCc3ccccc3OC)n2)c1`, the activation is inactive: 8.06%. Then `CN=C(N)NCCC[C@H](N)C(=O)O`, with inactive: 11.6% and inactive: -28.1% and inactive: -24.7%; and `CC(=O)NCCNc1ncnc2ccc(-c3ccccc3C(F)(F)F)cc12`, with inactive: -22.2%.
